Assay results from publication PMC6919601, “Identification of Plasmodium dipeptidyl aminopeptidase allosteric inhibitors by high throughput screening” (PLoS ONE, 2019).
Out of some 110,000 compounds screened, about 230 (0.21%) showed an effect of 50% or more. This is one part of the list.

Target: DPAP1 (Plasmodium falciparum, UniProt Q8IIJ9)
Test: primary screen, percent inhibition; read by cleavage of a fluorogenic dipeptide substrate; higher = more effect of the substance
Design: species or system P. falciparum D10 trophozoite lysates; single well
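Also: 30 min substrate incubation versus DMSO and 10 µM JCP410 controls.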

DPAP1, sequence (Q8IIJ9 whole entry, looked up): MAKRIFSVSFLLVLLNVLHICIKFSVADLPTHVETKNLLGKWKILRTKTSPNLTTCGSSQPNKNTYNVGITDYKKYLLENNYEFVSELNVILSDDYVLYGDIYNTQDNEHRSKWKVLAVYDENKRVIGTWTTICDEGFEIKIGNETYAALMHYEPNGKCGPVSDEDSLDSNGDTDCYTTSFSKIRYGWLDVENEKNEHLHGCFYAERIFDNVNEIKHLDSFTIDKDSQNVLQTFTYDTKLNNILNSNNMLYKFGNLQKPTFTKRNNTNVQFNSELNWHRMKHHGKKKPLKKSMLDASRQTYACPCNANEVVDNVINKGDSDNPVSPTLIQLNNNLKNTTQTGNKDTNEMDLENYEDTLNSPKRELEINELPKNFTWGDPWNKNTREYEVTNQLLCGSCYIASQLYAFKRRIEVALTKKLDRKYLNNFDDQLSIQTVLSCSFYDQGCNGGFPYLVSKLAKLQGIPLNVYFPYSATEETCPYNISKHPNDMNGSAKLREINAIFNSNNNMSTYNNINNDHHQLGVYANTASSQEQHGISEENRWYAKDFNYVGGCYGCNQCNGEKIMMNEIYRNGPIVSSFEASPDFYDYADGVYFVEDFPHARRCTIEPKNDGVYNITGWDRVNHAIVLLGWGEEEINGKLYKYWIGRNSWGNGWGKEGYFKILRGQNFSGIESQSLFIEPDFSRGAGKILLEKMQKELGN

SMILES | % Inhibition @ 10 uM [%]
Cn1c(=O)c(C#N)cc2c(=O)n3ccccc3nc21 | -0.764
Cc1nnc(SCc2ccc(Cl)cc2Cl)nc1O | -3.4
COc1ccc(-n2ncc3c(N(C)Cc4ccccc4)ncnc32)cc1 | 2.54
Nc1n[nH]c(-c2ccc([N+](=O)[O-])cc2)n1 | 3.54
COc1ccc(OC)c(NC(=O)CS(=O)(=O)Cc2ccccc2)c1 | -3.16
CCC(C)(C(=O)NC1CCCC1)N(Cc1ccco1)C(=O)CNC(=O)c1ccccc1 (centres unmarked) | 7.29
O=C(NCc1ccc2c(c1)OCO2)c1nc(-c2ccc(Br)o2)no1 | -3.75
COc1ccccc1Oc1ccc(C#N)c(C#N)c1 | -3.16
CCCCOc1ccc(S(=O)(=O)N(CC)CC)cc1 | 2.78
CCC(Oc1ccc2c(c1)C(=O)CC(C)(C)O2)C(=O)NCc1ccco1 (centres unmarked) | 5.23
O=C1CCCc2c1[nH]c1ccc([N+](=O)[O-])cc21 | 2.38
COc1ccc(CN2CCN(c3cccc(C(F)(F)F)c3)CC2)c(C)c1C | -3.65
Cc1ccc(NC(=N)Nc2nc(O)c3c(n2)CCC3)cc1Cl | -8.36
CC(C)CNC(=O)C(=O)NCc1ccccc1 | 1.29
O=C1OC(c2ccc(Br)o2)=N/C1=C\c1ccc(Cl)cc1Cl | -5.99
COc1ccc2c(c1)C(=O)N(C)C(=O)/C2=C/Nc1ccccc1 | 8.92
CC1CCN(CC(O)Cn2c3ccccc3c3ccccc32)CC1 (centres unmarked) | 1.72
O=C(CSc1nc2ccsc2c(=O)n1Cc1ccccn1)c1ccccc1 | -6.44
O=C(CSc1nc(O)c2ccccc2n1)Nc1ccc(F)c(F)c1F | -2.74
Cc1nc2cc(S(=O)(=O)N3CCC(C(=O)NCc4cccc(F)c4)CC3)ccc2n1C1CCCC1 | -7.28
CCN(CC)C(=O)Cn1cc(SCc2cccc(C)c2)c2ccccc21 | 1.66
O=C(CN1C(=O)CSc2ncccc21)NCCN1CCCC1 | -4.15
Cc1cc(/C=C2\NC(=O)N(Cc3ccc(Cl)cc3)C2=O)c(C)n1-c1ccccc1F | 2.17
COc1ccc(NC(c2ccc(Br)cc2)P(=O)(OC)OC)cc1 (centres unmarked) | 0.00178
Cc1ccccc1OCCn1cc(C(=O)C2CC2)c2ccccc21 | 1.62
O=C(Nc1cccc(-c2nc3ccc(Cl)cc3o2)c1)c1ccccc1F | 6.08

SMILES | % Inhibition @ 10 uM [%]
CCCN(CCC)C(=O)Cn1ncc2c3ccccc3n(Cc3ccccc3C)c2c1=O | 4.95
Cc1nc2ccccc2c2oc(C(=O)NCc3ccc(F)cc3)cc12 | 1.62
N#CC1(NC(=O)[C@H](Cc2c(F)cccc2F)NC(=O)c2ccc(-c3cc(C(=O)O)ccc3Cl)cc2)CCOCC1 | 14.7
O=C(c1cc(-c2ccccc2O)on1)N1CCCCCC1 | 2.4
COc1cc(/C=C2\SC(=O)N(CC(=O)Nc3ccc(C)cc3)C2=O)ccc1OC(C)C | 1.19
CCc1nn(C(C)C(=O)N2CCN(Cc3ccccc3)CC2)c(=O)c2cc3occc3n12 (centres unmarked) | -0.281
Cc1cc(C)nc(NC(=O)NS(=O)(=O)N(Cc2ccccc2)Cc2ccccc2)n1 | 5.53
O=C(c1ccc(Oc2ccccc2)cc1)c1nc2c(n1O)CCCC2 | 1.74
COc1ccc(S(=O)(=O)Nc2ccc(S(=O)(=O)Nc3ccc(F)cc3)cc2)cc1C | -2.09
Cc1cc(NS(=O)(=O)c2ccc(NC(=O)COc3ccc4ccccc4c3)cc2)no1 | 0.658
CC(C)c1ccc2oc(-c3cccc(N)c3)nc2c1 | -8.67
CCOC(=O)c1sc(NC(=O)COc2ccc3c(C)cc(=O)oc3c2)c(C(=O)OCC)c1C | 0.736
O=C(C1CC(=O)N(C2CCCC2)C1)N1CCC2(CC1)OCCO2 (centres unmarked) | -1.21
O=C(Nc1ccccc1Br)C1CC(=O)N(c2ccc3c4c(cccc24)CC3)C1 (centres unmarked) | -2.98
Cc1ccccc1NC(=O)CN(c1cc(Cl)ccc1C)S(C)(=O)=O | -6.77
O=C1C=CC(=NS(=O)(=O)c2ccc(C(=O)O)cc2)C=C1 | 3.35
CCc1ccc(S(=O)(=O)Nc2cc(Cl)ccc2Cl)cc1 | 22.5
O=C(NCc1ccccc1)c1cncc(Br)c1 | 0.843
CC(=O)c1cc(-c2ccc(F)cc2)n(CCC(=O)Nc2cccnc2)c1C | 1.47
CCN(CC)S(=O)(=O)c1ccc(NC(=O)c2ccc(Cl)cc2Cl)cc1 | -2.3
Cc1cccc(N2C(=O)C3C4CCC(C4)C3C2=O)c1 (centres unmarked) | 1.15
CN(C(=O)c1c(Br)cnn1C)C12CC3CC(CC(C3)C1)C2 | 1.03
O=C(CCc1ccc(-n2cnc3cccnc32)cc1)NCCc1cccs1 | 3.96
Cc1ccccc1-c1nc(CSCC(=O)N2CCCC2)c(C)o1 | -4.53
O=C(O)c1ccccc1-c1nc2cc(C3=NCCCN3)ccc2[nH]1 | -1.17
O=C(O)C=C1C2CC3CC(C2)CC1C3 | 1.38

SMILES | % Inhibition @ 10 uM [%]
CCc1ccc(-c2cn3c(n2)sc2cc(C(=O)N4CCOCC4)ccc23)cc1 | 15.7
CCn1cc(CNC(=O)c2cc(-c3ccccc3OC)nc3ccccc23)cn1 | -10.2
Cc1cccc(NC(=O)NCc2noc3ccccc23)n1 | -1.68
COC(=O)c1sc(N2C(=O)c3oc4ccccc4c(=O)c3C2c2cccc(Cl)c2)nc1C (centres unmarked) | -2.92
COc1ccc(N/C=C(/C#N)c2nc(-c3ccc(OC)cc3)cs2)cc1 | -4.3
COc1ccccc1C(=O)Nc1sc2c(c1C(N)=O)CCC(C)C2 (centres unmarked) | 12.2
CCCCSc1nc(O)cc(=O)n1C | -3.04
O=C(c1cc2ccccc2oc1=O)N1CCCc2ccccc21 | -4.18
COc1cc(NC(=O)CC(C)=O)c(OC)cc1Cl | -1.97
CC(=O)Nc1ccc(S(=O)(=O)Nc2cccc3ccccc23)cc1 | -0.884
O=C(CNS(=O)(=O)c1ccc(Br)cc1)N1CCCCC1 | 4.5
O=C(NC1(C(F)(F)F)C(=O)Nc2c1c(=O)[nH]c(=O)n2-c1ccccc1)c1ccc(F)cc1 (centres unmarked) | -6.92
COc1ccc2c(c1)/C(=N/OC(=O)c1cccs1)CCC2 | -1.68
CCCCC(=O)NCCc1nc2ccccc2[nH]1 | 0.777
CC(C(=O)NC1CCc2ccccc21)n1nc2ccccc2n1 (centres unmarked) | 5.43
CCOc1ccc2[nH]c(SCC(=O)N3CCN(S(=O)(=O)c4ccccc4)C3C(C)C)nc2c1 (centres unmarked) | -3.34
N#Cc1nc(/C=C/c2cccs2)oc1NCc1cccnc1 | 3.27
CC(C)(C)c1ccccc1OCCOCCN1CCNCC1 | -0.473
CCN(CC)C(=O)CN(c1cc2c(cc1OC)oc1ccccc12)S(=O)(=O)c1ccc(C)cc1 | -5.23
O=C(NCc1ccccc1)c1cc(-c2cccs2)nc2ccccc12 | 10.8
Cc1nn(-c2ccc3ccccc3c2)c(=O)c2ccccc12 | -0.712
COc1ccc(Br)cc1C1C(C#N)=C(N)Oc2[nH]nc(C)c21 (centres unmarked) | 2.36
CCOc1ccccc1C1C=C(c2ccc(OC)cc2)Nc2nnnn21 (centres unmarked) | 0.0842
Cc1cc(O)ccc1NC(=O)c1ccc2c(c1)C(=O)N(Cc1cccnc1)C2=O | -6.47
CCc1nn(CCCC(=O)NC2CCCCC2C)c(=O)c2cc3occc3n12 (centres unmarked) | -0.281
O=C1CC(N2CCN(C/C=C/c3ccccc3)CC2)C(=O)N1c1ccc(Br)cc1 (centres unmarked) | -0.132

SMILES | % Inhibition @ 10 uM [%]
CCOc1ccc2nc(N3CCC(C(=O)Nc4cccnc4)CC3)sc2c1 | 3.4
CCOc1ccccc1-c1nn2c(-c3ccccc3OC)nnc2s1 | 2.89
Cc1c(CC(=O)O)c(=O)oc2cc3occ(-c4ccccc4)c3cc12 | 11.4
COc1ccc(S(=O)(=O)N(CC(=O)NCC2CCCO2)c2ccccc2)cc1 (centres unmarked) | 3.21
CCc1ccc(C2c3c(oc4ccc(C)cc4c3=O)C(=O)N2c2nccs2)cc1 (centres unmarked) | -3.13
CCc1[nH]nc2c1C(c1ccc(OC)cc1)C(C#N)=C(N)O2 (centres unmarked) | -5.34
O=C(NCc1cccnc1)C1=CCN(S(=O)(=O)c2ccccc2)CC1 | -3.35
Cc1nnc(SCc2ccccc2CSc2nnc(C)s2)s1 | -4.04
CCC(Cc1ccccc1)NC(=O)c1nnc(Cc2ccccc2Cl)o1 (centres unmarked) | 2.5
CC(C)Cc1ccc(C(C)c2nc3ccccc3[nH]2)cc1 (centres unmarked) | -0.712
c1ccc(CCC2NCCn3cccc32)cc1 (centres unmarked) | 2.96
CCCCc1ccc(NC(=O)c2ccn(CC)n2)cc1 | -1.64
O=C(NCCCN1CCc2ccccc2C1)C1CCN(c2nnc(N3CCCC3=O)s2)CC1 | 0.623
CCOc1ccc(/C=C2/CN(C)C/C(=C\c3ccc(OCC)cc3)C2=O)cc1 | -5.51
CC(Cc1cccc(C(F)(F)F)c1)N1CCc2c([nH]c3ccccc23)C1 (centres unmarked) | -3.5
COc1ccc(-c2cc(C(F)(F)F)c(C#N)c(SCC(=O)O)n2)cc1OC | 12.9
COc1ccccc1OCc1ccc(C(=O)N2N=C(C)CC2(O)C(F)(F)F)o1 (centres unmarked) | 2.03
CC1CCCCN1Cc1nc2c(c(=O)n(C)c(=O)n2C)n1Cc1c(F)cccc1Cl (centres unmarked) | -0.499
CCNC(=S)Nc1ccccc1Cl | 3.03
CCOc1ccccc1NC(=O)COc1ccccc1OC | -6.66
Cc1ccccc1C(=O)N1CCN(C2=NS(=O)(=O)c3ccccc32)CC1 | 2.13
Cc1cc(C(F)(F)F)n2nc(C)cc2n1 | -3.96
N#CC1=C(N)Oc2[nH]nc(-c3ccc(Br)cc3)c2C1C1CC=CCC1 (centres unmarked) | 3.05
